According to the supplement of paper PMC8728848:
The other results are listed elsewhere or left out.

Key:
Experiment in all cases: glycan array binding signal (z-score within array); higher = stronger binding
Settings in all cases: glycan notation: IUPAC condensed, linker removed
Neu5Ac(a2-3)Gal = biological target: Neu5Ac(a2-3)Gal
Method in brief: (§1)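 Glycan array data were curated from 3228 arrays in the Consortium for Functional Glycomics database and kept only where the protein sequence was available. Glycan names were converted to IUPAC-condensed notation, and columns mapping to the same glycan were averaged. The binding signal is a within-array Z-score, averaged across arrays of the same protein sequence at different concentrations or buffers and across linkers. Negative Z-scores can be read as non-binding.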

[1] = biological target: Neu5Ac(a2-3)Gal(b1-3)GalNAc
Method in brief: as §1

[2] = biological target: Neu5Ac(a2-3)Gal(b1-3)GalNAc(b1-3)Gal(a1-4)Gal(b1-4)Glc
Method in brief: as §1

[3] = biological target: Neu5Ac(a2-3)Gal(b1-3)GalNAc(b1-4)Gal(b1-4)Glc
Method in brief: as §1

[4] = biological target: Neu5Ac(a2-3)Gal(b1-3)GalNAc(b1-4)[Neu5Ac(a2-3)]Gal(b1-4)Glc
Method in brief: as §1

[5] = biological target: Neu5Ac(a2-3)Gal(b1-3)GalNAc(b1-4)[Neu5Ac(a2-8)Neu5Ac(a2-3)]Gal(b1-4)Glc
Method in brief: as §1

[6] = biological target: Neu5Ac(a2-3)Gal(b1-3)GalNAc6S
Method in brief: as §1

[7] = biological target: Neu5Ac(a2-3)Gal(b1-3)GlcNAc
Method in brief: as §1

[8] = biological target: Neu5Ac(a2-3)Gal(b1-3)GlcNAc(b1-2)Man
Method in brief: as §1

[9] = biological target: Neu5Ac(a2-3)Gal(b1-3)GlcNAc(b1-2)Man(a1-3)[GlcNAc(b1-4)][Neu5Ac(a2-3)Gal(b1-3)GlcNAc(b1-2)Man(a1-6)]Man(b1-4)GlcNAc(b1-4)GlcNAc
Method in brief: as §1

[10] = biological target: Neu5Ac(a2-3)Gal(b1-3)GlcNAc(b1-2)Man(a1-3)[Neu5Ac(a2-3)Gal(b1-3)GlcNAc(b1-2)Man(a1-6)]Man(b1-4)GlcNAc(b1-4)GlcNAc
Method in brief: as §1

[11] = biological target: Neu5Ac(a2-3)Gal(b1-3)GlcNAc(b1-2)[Neu5Ac(a2-3)Gal(b1-3)GlcNAc(b1-4)]Man(a1-6)[Neu5Ac(a2-3)Gal(b1-3)GlcNAc(b1-2)Man(a1-3)]Man(b1-4)GlcNAc(b1-4)GlcNAc
Method in brief: as §1

[12] = biological target: Neu5Ac(a2-3)Gal(b1-3)GlcNAc(b1-3)Gal(b1-3)GlcNAc
Method in brief: as §1

[13] = biological target: Neu5Ac(a2-3)Gal(b1-3)GlcNAc(b1-3)Gal(b1-4)GlcNAc
Method in brief: as §1

[14] = biological target: Neu5Ac(a2-3)Gal(b1-3)GlcNAc(b1-3)GalNAc
Method in brief: as §1

[15] = biological target: Neu5Ac(a2-3)Gal(b1-3)GlcNAc(b1-6)GalNAc
Method in brief: as §1

[16] = biological target: Neu5Ac(a2-3)Gal(b1-3)GlcNAc6S
Method in brief: as §1

[17] = biological target: Neu5Ac(a2-3)Gal(b1-3)[Fuc(a1-4)]GlcNAc
Method in brief: as §1

[18] = biological target: Neu5Ac(a2-3)Gal(b1-3)[Fuc(a1-4)]GlcNAc(b1-3)Gal(b1-3)[Fuc(a1-4)]GlcNAc
Method in brief: as §1

[19] = biological target: Neu5Ac(a2-3)Gal(b1-3)[Fuc(a1-4)]GlcNAc(b1-3)Gal(b1-4)[Fuc(a1-3)]GlcNAc
Method in brief: as §1

[20] = biological target: Neu5Ac(a2-3)Gal(b1-3)[GlcNAc(b1-6)]GalNAc
Method in brief: as §1

[21] = biological target: Neu5Ac(a2-3)Gal(b1-3)[Neu5Ac(a2-6)]GalNAc
Method in brief: as §1

[22] = biological target: Neu5Ac(a2-3)Gal(b1-3)[Neu5Ac(a2-6)]GlcNAc(b1-3)[Fuc(a1-3)[Gal(b1-4)]GlcNAc(b1-6)]Gal(b1-4)Glc
Method in brief: as §1

[23] = biological target: Neu5Ac(a2-3)Gal(b1-3)]Neu5Ac(a2-3)Gal(b1-4)]GlcNAc
Method in brief: as §1

Neu5Ac(a2-3)Gal(b1-4)Glc = biological target: Neu5Ac(a2-3)Gal(b1-4)Glc
Method in brief: as §1

[24] = biological target: Neu5Ac(a2-3)Gal(b1-4)GlcNAc
Method in brief: as §1

[25] = biological target: Neu5Ac(a2-3)Gal(b1-4)GlcNAc(b1-2)Man
Method in brief: as §1

[26] = biological target: Neu5Ac(a2-3)Gal(b1-4)GlcNAc(b1-2)Man(a1-3)[GlcNAc(b1-4)][Neu5Ac(a2-3)Gal(b1-4)GlcNAc(b1-2)Man(a1-6)]Man(b1-4)GlcNAc(b1-4)GlcNAc
Method in brief: as §1

[27] = biological target: Neu5Ac(a2-3)Gal(b1-4)GlcNAc(b1-2)Man(a1-3)[Neu5Ac(a2-3)Gal(b1-4)GlcNAc(b1-2)Man(a1-6)]Man(b1-4)GlcNAc(b1-4)GlcNAc
Method in brief: as §1

[28] = biological target: Neu5Ac(a2-3)Gal(b1-4)GlcNAc(b1-2)Man(a1-3)[Neu5Ac(a2-3)Gal(b1-4)GlcNAc(b1-2)Man(a1-6)]Man(b1-4)GlcNAc(b1-4)[Fuc(a1-6)]GlcNAc
Method in brief: as §1

[29] = biological target: Neu5Ac(a2-3)Gal(b1-4)GlcNAc(b1-2)Man(a1-3)[Neu5Ac(a2-6)Gal(b1-4)GlcNAc(b1-2)Man(a1-6)]Man(b1-4)GlcNAc(b1-4)GlcNAc
Method in brief: as §1

[30] = biological target: Neu5Ac(a2-3)Gal(b1-4)GlcNAc(b1-2)[Neu5Ac(a2-3)Gal(b1-4)GlcNAc(b1-4)]Man(a1-3)[GlcNAc(b1-4)][Neu5Ac(a2-3)Gal(b1-4)GlcNAc(b1-2)[Neu5Ac(a2-3)Gal(b1-4)GlcNAc(b1-6)]Man(a1-6)]Man(b1-4)GlcNAc(b1-4)GlcNAc
Method in brief: as §1

[31] = biological target: Neu5Ac(a2-3)Gal(b1-4)GlcNAc(b1-2)[Neu5Ac(a2-3)Gal(b1-4)GlcNAc(b1-4)]Man(a1-3)[GlcNAc(b1-4)][Neu5Ac(a2-3)Gal(b1-4)GlcNAc(b1-4)Man(a1-6)]Man(b1-4)GlcNAc(b1-4)GlcNAc
Method in brief: as §1

[32] = biological target: Neu5Ac(a2-3)Gal(b1-4)GlcNAc(b1-2)[Neu5Ac(a2-3)Gal(b1-4)GlcNAc(b1-6)]Man(a1-6)[Neu5Ac(a2-3)Gal(b1-4)GlcNAc(b1-2)Man(a1-3)][GlcNAc(b1-4)]Man(b1-4)GlcNAc(b1-4)GlcNAc
Method in brief: as §1

[33] = biological target: Neu5Ac(a2-3)Gal(b1-4)GlcNAc(b1-3)Gal
Method in brief: as §1

[34] = biological target: Neu5Ac(a2-3)Gal(b1-4)GlcNAc(b1-3)Gal(b1-3)GlcNAc
Method in brief: as §1

[35] = biological target: Neu5Ac(a2-3)Gal(b1-4)GlcNAc(b1-3)Gal(b1-4)GlcNAc
Method in brief: as §1

B1: Gal 8 (Mus musculus), Q9JL15 (protein)
chain: MGGSHHHHHHGMASMLSLNNLQNIIYNPIIPYVGTITEQLKPGSLIVIRGHVPKDSERFQVDFQLGNSLKPRADVAFHFNPRFKRSSCIVCNTLTQEKWGWEEITYDMPFRKEKSFEIVFMVLKNKFQVAVNGRHVLLYAHRISPEQIDTVGIYGKVNIHSIGFRFSSASALPHTLGDLQSMETSALGLTQINRENIQKPGKLQLSLPFEARLNASMGPGRTVVIKGEVNTNARSFNVDLVAGKTRDIALHLNPRLNVKAFVRNSFLQDAWGEEERNITCFPFSSGMYFEMIIYCDVREFKVAINGVHSLEYKHRFKDLSSIDTLSVDGDIRLLDVRSW
glycan array binding signal (z-score) (Neu5Ac(a2-3)Gal): -0.538
glycan array binding signal (z-score) [1]: -0.187
glycan array binding signal (z-score) [2]: 0.251
glycan array binding signal (z-score) [3]: -0.539
glycan array binding signal (z-score) [4]: -0.01
glycan array binding signal (z-score) [5]: -0.352
glycan array binding signal (z-score) [6]: -0.028
glycan array binding signal (z-score) [7]: 0.034
glycan array binding signal (z-score) [8]: 0.1
glycan array binding signal (z-score) [9]: -0.534
glycan array binding signal (z-score) [10]: -0.466
glycan array binding signal (z-score) [11]: 0.396
glycan array binding signal (z-score) [12]: 0.355
glycan array binding signal (z-score) [13]: 0.27
glycan array binding signal (z-score) [14]: 0.083
glycan array binding signal (z-score) [15]: -0.248
glycan array binding signal (z-score) [16]: -0.182
glycan array binding signal (z-score) [17]: -0.546
glycan array binding signal (z-score) [18]: -0.513
glycan array binding signal (z-score) [19]: -0.529
glycan array binding signal (z-score) [20]: -0.2
glycan array binding signal (z-score) [21]: -0.506
glycan array binding signal (z-score) [22]: -0.109
glycan array binding signal (z-score) [23]: -0.539
glycan array binding signal (z-score) (Neu5Ac(a2-3)Gal(b1-4)Glc): 0.211
glycan array binding signal (z-score) [24]: -0.517
glycan array binding signal (z-score) [25]: -0.457
glycan array binding signal (z-score) [26]: -0.399
glycan array binding signal (z-score) [27]: -0.399
glycan array binding signal (z-score) [28]: -0.333
glycan array binding signal (z-score) [29]: -0.45
glycan array binding signal (z-score) [30]: -0.222
glycan array binding signal (z-score) [31]: -0.201
glycan array binding signal (z-score) [32]: -0.301
glycan array binding signal (z-score) [33]: -0.525
glycan array binding signal (z-score) [34]: -0.043
glycan array binding signal (z-score) [35]: -0.323
